Measurements published in PubChem BioAssay AID588855 (National Center for Advancing Translational Sciences (NCATS), 2011).
In all, about 410,000 compounds went through this assay and about 5,000 (1.2%) were called active. Inconclusive results, whose numbers are uncertain, are shown with a selection of clear calls. Calls follow the shape of the dose curve; as a rule, active = well fitted inhibition curve with a large enough effect; inconclusive = small, poorly fitted or top-dose-only effect; inactive = no such curve, though single readings can be large or run the other way. Potencies of inconclusive entries are doubtful fits and often do not repeat.

Experiment: qHTS for Inhibitors of TGF-b; also: nearly all actives have a fitted effect of over 65% in size
Settings: HepG2 CAGA-GFP TGF-b/SMAD3 reporter, GFP fluorescence, 18 h, TGF-beta stimulated, 500 pg/mL final; series mostly up to 46.1 µM; activity, negative = inhibition: at the top concentration
In short: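 Cell-based qHTS in HEPG2 carrying a CAGA-GFP Smad reporter; compounds added before 500 pg/mL final TGF-beta, 18 h incubation at 37 degrees C, GFP fluorescence quantified per cell by imaging cytometry.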
% is scaled to controls: 0 for no effect and ±100 for the full control effect; potency is read from the fitted curve at half-maximal effect; tags tell the direction and shape of the fitted curve.

| Compound | activity, negative = inhibition | Potency |
| --- | --- | --- |
| c1ccc(-c2sc3ccccc3c2-c2ccc(OCCN3CCOCC3)cc2)cc1 | inactive: -1.22% | – |
| COc1cc(-c2coc3c(C(=O)NCc4ccc(OC)c(OC)c4)cccc23)ccc1O | – | inconclusive: 14.1 µM [inhibitor, single point] |
| COc1ccc(S(=O)(=O)N(C(=O)c2ccncc2)c2ccc3oc(C)c(C(C)=O)c3c2)cc1 | – | inconclusive: 12.6 µM [inhibitor, partial curve] |
| Cc1ccc(CNC(=O)C2CCN(S(=O)(=O)c3c(C)noc3/C=C/c3ccccc3F)CC2)o1 | inactive: -10.5% | – |
| C=CCOC(=O)C1=C(C)Nc2nnnn2C1c1cccc(OC)c1OC (centres undefined) | inactive: 24.7% | – |
| Cc1c(Cl)cccc1-c1ccc(CNCc2ccccn2)o1 | – | inconclusive: 2.51 µM [inhibitor, full curve, poor fit] |
| CC(Oc1ccc(Cl)cc1)C(=O)N/N=C/c1ccsc1 (centres undefined) | inactive: 4.65% | – |
| N#Cc1c(C(F)(F)F)cc(-c2ccc(Cl)cc2)[nH]c1=O | – | inconclusive: 35.5 µM [inhibitor, single point] |
| OC(c1cccc(Cl)c1)c1nc(/C=C/c2ccccc2)cs1 (centres undefined) | – | inconclusive: 22.4 µM [inhibitor, single point] |
| CCCc1cc(=O)oc2c3c(cc(OCC(=O)N[C@@H](C)C(=O)O)c12)OC(C)(C)CC3 | inactive: -0.898% | – |
| O=C(O)c1cc(O)c2c(c1)[C@@H]([C@H]1c3cc(C(=O)O)cc(O)c3C(=O)c3c(O[C@@H]4O[C@H](CO)[C@@H](O)[C@H](O)[C@H]4O)cccc31)c1cccc(OC3O[C@H](CO)[C@@H](O)[C@H](O)[C@H]3O)c1C2=O (some centres undefined) | – | active: 11.2 µM |
| CCOC(=O)NC(=O)/C(C=Nc1ccc(Cl)c(Cl)c1Cl)=C(\C)O | – | inconclusive: 1.78 µM [inhibitor, partial curve, poor fit] |
| O=C(Cc1cccc2ccccc12)N/N=C/c1ccc2cccc(O)c2n1 | – | inconclusive: 35.5 µM [inhibitor, single point] |
| Cc1cccc(Cn2c(SCc3ccc(C(=O)NCc4cccs4)cc3)nc3ccncc32)c1 | – | inconclusive: 8.91 µM [inhibitor, partial curve, poor fit] |
| O=S(=O)(Nc1ccc(S(=O)(=O)Nc2nccs2)cc1)c1ccc(Br)cc1 | – | inconclusive: 14.1 µM [inhibitor, single point] |
| Cn1cc(-c2cc3n(n2)CCC(=O)N3CC(=O)NCc2ccccc2)c2ccccc21 | inactive: -27.2% | – |
| Cc1nc2ccc(NC(=O)c3ccc(Cl)c(S(=O)(=O)N(C)c4ccccc4)c3)cc2s1 | inactive: -21.1% | – |
| CC(C)c1ccc(NC(=O)CSC2=Nc3ccccc3C3=NC(CC(=O)NCCc4ccccc4)C(=O)N23)cc1 (centres undefined) | – | inconclusive: 15.8 µM [inhibitor, single point] |
| CCCCNC(=O)C(C)N(CCN(C)C)C(=O)CCCCCN1C(=O)NC(c2ccc(Cl)cc2)C(C(=O)OCc2ccccc2)=C1C (centres undefined) | – | inconclusive: 35.5 µM [inhibitor, single point] |
| O=C(c1cccc(S(=O)(=O)N2CCOCC2)c1)N1CCC(Cc2ccccc2)CC1 | – | inconclusive: 12.6 µM [inhibitor, single point] |
| Cc1[nH]c2ccccc2c1SCCNC(=O)c1ccc(F)cc1 | – | inconclusive: 22.4 µM [inhibitor, single point] |
| COc1ccc(Cl)cc1NC(=O)c1c(NCc2cccs2)sc2c1CCC(C)C2 (centres undefined) | – | inconclusive: 28.2 µM [inhibitor, single point] |

| Compound | activity, negative = inhibition | Potency |
| --- | --- | --- |
| CCN1C/C(=C/c2cccc([N+](=O)[O-])c2)C(=O)/C(=C/c2cccc([N+](=O)[O-])c2)C1 | – | inconclusive: 35.5 µM [inhibitor, single point] |
| Cc1cc(-c2ccc(C)c(S(=O)(=O)NCCc3ccccc3)c2)on1 | – | inconclusive: 0.112 µM [inhibitor, full curve, poor fit] |
| Cc1ccc(Nc2c(-c3cccc(Cl)c3)nc3cccc(C)n23)cc1 | – | inconclusive: 35.5 µM [inhibitor, single point] |
| Cc1ccc(NC(=O)CSc2nc(=O)n(CCN3CCOCC3)c3c2CCC3)cc1Cl | – | inconclusive: 35.5 µM [inhibitor, single point] |
| CCOC(=O)CN(C(=O)CSc1nnc(C)n1-c1ccccc1)c1ccccc1 | inactive: -0.125% | – |
| O=C(CSc1ccc(S(=O)(=O)N2CCOCC2)cn1)Nc1ccc(F)c(F)c1 | – | inconclusive: 17.8 µM [inhibitor, partial curve] |
| CCOC(=O)C1CCCN(S(=O)(=O)c2cc(C(=O)OC)n(C)c2)C1 (centres undefined) | – | inconclusive: 0.112 µM [inhibitor, full curve, poor fit] |
| Cc1c(Cl)cccc1NC(=S)N/N=C/c1ccccc1Cl | – | inconclusive: 12.6 µM [inhibitor, partial curve, poor fit] |
| CCOc1ccccc1CNC(=O)c1ccc(Cn2c(=O)c3cccn3c3cccnc32)cc1 | inactive: -8.3% | – |
| CCN(CC(=O)Nc1cccc(Br)c1)Cc1nc2ccccc2c(=O)[nH]1 | inactive: 14.4% | – |
| O=C1/C(=C/c2cccnc2)Oc2cc(OS(=O)(=O)c3ccccc3)ccc21 | – | inconclusive: 7.08 µM [inhibitor, partial curve, poor fit] |
| CCOC(=O)c1c(NC(=O)CN2C(=O)NC(C)(c3ccccc3)C2=O)sc(C)c1C (centres undefined) | – | inconclusive: 35.5 µM [inhibitor, single point] |
| COc1ccc(/C=N/OCC(=O)Nc2cc(C)on2)cc1OC | inactive: 0% | – |
| COc1cccc(CC2(CO)CCCN(Cc3nc(-c4cccs4)oc3C)C2)c1 (centres undefined) | – | inconclusive: 11.2 µM [inhibitor, partial curve, poor fit] |
| O=C(Cc1ccc(NC(=O)C2CCN(C(=O)C3CCCCC3)CC2)cc1)Nc1cccc(C(=O)N2CCCCC2)c1 | inactive: 0.744% | – |
| O=C(/C=C/c1ccccc1)Nc1cc(-c2nc3ccccc3o2)ccc1Cl | – | inconclusive: 1.58 µM [inhibitor, partial curve] |
| COC(=O)c1cc(OC)c(OC)cc1NC(=O)Nc1ccc(OC)cc1 | – | inconclusive: 12.6 µM [inhibitor, single point] |
| CC1CCN(S(=O)(=O)c2ccc3nc(N4CCN(c5ccccc5F)CC4)ccc3c2)CC1 | inactive: -2.07% | – |
| COc1cc(C2C(C(=O)c3cccs3)=C(O)C(=O)N2Cc2ccco2)cc(OC)c1OC (centres undefined) | – | inconclusive: 11.2 µM [inhibitor, single point] |
| CC(=O)NC12CC3CC(C1)CC(C(=O)N1CCN(S(=O)(=O)c4ccc(Cl)s4)CC1)(C3)C2 | – | inconclusive: 1.58 µM [inhibitor, partial curve, poor fit] |
| CCOc1cc(C2CC(=O)Nc3c2c(C)nn3-c2nc(C)cc(C)n2)ccc1O (centres undefined) | inactive: 20% | – |
| COc1ccc(S(=O)(=O)Nc2cc(SCC(=O)O)c(O)c3ccccc23)cc1 | – | active: 11.2 µM |

| Compound | activity, negative = inhibition | Potency |
| --- | --- | --- |
| Cc1ccc(C(=O)CC(=O)c2ccccc2C)c(O)c1 | – | inconclusive: 15.8 µM [inhibitor, single point] |
| COc1ccc2c(c1)Cc1sc(NC(=O)c3cccc(Cl)c3)nc1-2 | – | inconclusive: 8.91 µM [inhibitor, partial curve, poor fit] |
| Fc1ccc(-c2nc3c(Cl)cc(C(F)(F)F)cn3c2Cl)cc1 | – | inconclusive: 3.98 µM [inhibitor, full curve, poor fit] |
| Oc1nc(Nc2ccccc2)sc1/C=C1\C=Nc2ccccc21 | – | inconclusive: 8.91 µM [inhibitor, partial curve, poor fit] |
| N=C(N)SCc1cn2ccccc2n1 | – | inconclusive: 25.1 µM [inhibitor, single point] |
| CC(NC(=O)Nc1ccccc1)c1ccccc1 (centres undefined) | – | inconclusive: 22.4 µM [inhibitor, single point] |
| Cc1cc(NC(=O)c2ccc([N+](=O)[O-])o2)ccc1NC(=O)c1ccco1 | – | active: 7.08 µM |
| Cc1cccc(Cc2c(C)nc3nc(SCC(=O)NC4CCCCC4)nn3c2C)c1 | – | inconclusive: 28.2 µM [inhibitor, single point] |
| COc1ccc(/C=C\c2onc(C)c2S(=O)(=O)N2CCC(C(=O)Nc3ccc(C)c(F)c3)CC2)cc1 | – | active: 11.2 µM |
| Cn1c(-c2ccccc2)c(C(=O)CCl)c2ccccc21 | – | inconclusive: 17.8 µM [inhibitor, partial curve, poor fit] |
| O=C(NCCS(=O)(=O)N1CCN(c2cccc(Cl)c2)CC1)C1CC1 | – | inconclusive: 5.62 µM [inhibitor, single point] |
| Cc1nc(N(CCO)C2CCCCC2)c2nnn(Cc3ccccc3)c2n1 | inactive: -0.76% | – |
| O=C(Nc1ccc(N2CCOCC2)c(Cl)c1)c1c(F)c(F)c(F)c(F)c1F | inactive: -3.79% | – |
| CCN(CC)S(=O)(=O)c1cccc(N=Nc2c(O)c3ccccc3oc2=O)c1 | – | inconclusive: 14.1 µM [inhibitor, partial curve] |
| Cc1ccc(C2Nc3ccccc3C(=O)N2Cc2ccco2)cc1 (centres undefined) | – | inconclusive: 17.8 µM [inhibitor, single point] |
| Cc1ccccc1OCC(=O)NCC(=O)OCC(=O)c1ccc(Br)cc1 | inactive: 16% | – |
| O=C(CN1C(=O)S/C(=C\C=C\c2ccccc2)C1=O)Nc1cccc(O)c1 | – | inconclusive: 20 µM [inhibitor, single point] |
| CCn1c2c(c(=O)n3ncc(C(=O)Nc4ccc(F)c(Cl)c4)c13)CN(Cc1ccc(OC)cc1)CC2 | – | inconclusive: 22.4 µM [inhibitor, single point] |
| CCOC(=O)Cn1cc(/C=N/N2C(=O)C3C4C=CC(C4)C3C2=O)c2ccccc21 (centres undefined) | – | active: 6.31 µM |
| CC(C)CC(=O)N(Cc1ccccc1)S(=O)(=O)c1ccc2c(c1)oc(=O)n2C | – | inconclusive: 8.91 µM [inhibitor, partial curve, poor fit] |
